# The whole screen tested about 310,000 compounds, of which about 2,200 (0.71%) showed an effect of 50% or more. The effect is printed as a negative number. This is one part of the list.
# Biological target: human ether-à-go-go-related gene (hERG) potassium channel (human, UniProt Q12809)
# Test: primary screen, population patch clamp on CHO cells stably expressing hERG
# Sequence of human ether-à-go-go-related gene (hERG) potassium channel (Q12809 whole entry, looked up): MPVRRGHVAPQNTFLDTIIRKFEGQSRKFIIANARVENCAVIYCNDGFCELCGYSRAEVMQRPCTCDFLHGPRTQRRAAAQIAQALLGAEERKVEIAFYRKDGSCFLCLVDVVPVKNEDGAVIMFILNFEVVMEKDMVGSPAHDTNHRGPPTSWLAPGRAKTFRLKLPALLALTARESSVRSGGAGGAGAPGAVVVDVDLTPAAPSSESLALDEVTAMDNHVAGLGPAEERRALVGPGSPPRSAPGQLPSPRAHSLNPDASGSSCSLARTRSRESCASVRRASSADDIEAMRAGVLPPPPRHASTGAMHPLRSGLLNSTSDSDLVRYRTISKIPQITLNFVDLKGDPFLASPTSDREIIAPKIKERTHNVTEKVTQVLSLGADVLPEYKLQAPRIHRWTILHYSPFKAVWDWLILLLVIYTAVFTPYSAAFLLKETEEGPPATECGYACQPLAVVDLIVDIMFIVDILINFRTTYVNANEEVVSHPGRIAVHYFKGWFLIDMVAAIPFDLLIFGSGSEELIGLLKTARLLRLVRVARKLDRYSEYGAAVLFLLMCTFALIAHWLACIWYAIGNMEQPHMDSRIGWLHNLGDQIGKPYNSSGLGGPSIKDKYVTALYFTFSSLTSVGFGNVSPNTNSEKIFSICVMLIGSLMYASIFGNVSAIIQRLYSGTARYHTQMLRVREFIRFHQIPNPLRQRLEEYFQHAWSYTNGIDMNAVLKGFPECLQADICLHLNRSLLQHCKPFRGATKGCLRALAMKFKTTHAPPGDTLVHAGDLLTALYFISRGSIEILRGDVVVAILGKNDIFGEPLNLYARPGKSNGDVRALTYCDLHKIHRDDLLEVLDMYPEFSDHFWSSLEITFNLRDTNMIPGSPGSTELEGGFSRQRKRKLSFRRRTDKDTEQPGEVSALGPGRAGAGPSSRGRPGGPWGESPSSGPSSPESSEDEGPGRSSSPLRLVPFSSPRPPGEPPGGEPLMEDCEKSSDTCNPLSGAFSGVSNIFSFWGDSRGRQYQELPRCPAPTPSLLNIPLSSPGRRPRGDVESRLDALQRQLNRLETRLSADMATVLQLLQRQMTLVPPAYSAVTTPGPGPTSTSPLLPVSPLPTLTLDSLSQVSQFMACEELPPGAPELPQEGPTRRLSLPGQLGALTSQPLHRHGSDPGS
row,Structure (SMILES),"hERG current change (%, negative = inhibition) at 1uM"
1,CC(C)N1C(=O)CSC1c1ccc(Br)cc1 (stereo not shown),15.4%
2,Cc1cccc(C2=NC(C(F)(F)F)(C(F)(F)F)c3c(n(-c4ccc(F)cc4)c(=O)[nH]c3=O)N2)c1,15.6%
3,Cc1nc2ccccc2c(=O)n1/N=C/c1cccnc1,16%
4,CC(C)c1ccc(NC(=O)C(=O)C2C(=O)Nc3ccccc32)cc1 (stereo not shown),-0.533%
5,O=C(O)c1ccc(-n2cncn2)c([N+](=O)[O-])c1,7.34%
6,CS(=O)(=O)N(CC(=O)NCc1ccco1)c1ccc(Cl)cc1Cl,17.5%
7,COCCCn1c(C2CCCCC2)nc2oc3cc(OC)ccc3c(=O)c2c1=O,6.18%
8,CC(C)(C)SCCNC(=O)Nc1ccccc1,6.31%
9,COc1ccc([C@@H]2[C@@H](C(=O)C(C)(C)C)N3N=Cc4ccccc4[C@@H]3C23C(=O)OC(C)(C)OC3=O)cc1OC,-5.04%
10,Cc1ccc(N(CC(=O)NC(C)(C)C)C(=O)CCC(=O)Nc2nccs2)c(C)c1,11.4%
11,COc1cc(OC)cc(N(C(=O)c2ccco2)C(C(=O)NC2CCCC2)c2ccc(N(C)C)cc2)c1 (stereo not shown),4.12%
12,C/C(=N\NC(=O)c1cccc(S(=O)(=O)N2CCOCC2)c1)c1ccc(C)cc1,7.97%
13,[N-]=[N+]=N[C@@H](CCN1CC[C@H](O)CCC1=O)c1ccccc1,9.49%
14,Clc1ccc(OCc2nn[nH]n2)cc1,13.7%
15,CCN(CC)C(=O)Cn1cc(C(=O)C(=O)N2CC=C(c3ccccc3)CC2)c2ccccc21,7.11%
16,Cn1c(SCC(N)=O)nnc1C1CCN(S(=O)(=O)c2ccccc2C(F)(F)F)CC1,16.3%
17,CCCOc1ccc(C(=O)CCC(=O)OCC(=O)N2CC(=O)Nc3ccccc32)cc1,16.6%
18,Cc1ccc(N2CC(C(=O)Nc3cc(C(F)(F)F)ccc3N3CCCC3)CC2=O)cc1 (stereo not shown),-3.44%
19,COc1ccc(Cl)cc1S(=O)(=O)N1CCC(C(=O)NCc2ccccn2)CC1,1.33%
20,Cc1ccc(NC(=O)CN(C)C(=O)c2ccc(COc3ccccc3)cc2)cc1,10.8%
21,COc1ccc2c(c1)[nH]c1c(=O)n(/N=C/C3C(C)C=C(C)CC3C)c(=O)[nH]c12 (stereo not shown),17.2%
22,CC1CCCCN1CCCNc1ccc(C(CC(N)=O)NC(=O)Cc2ccc(Cl)cc2)cc1[N+](=O)[O-] (stereo not shown),-6.77%

row,Structure (SMILES),"hERG current change (%, negative = inhibition) at 1uM"
1,O=C(Nc1ccc(NS(=O)(=O)c2ccc([N+](=O)[O-])cc2)cc1)c1ccco1,10.6%
2,O=C(C1CCC1)N1CCc2cc(S(=O)(=O)NCc3cccnc3)ccc21,6.41%
3,Cc1ccc(NC(=O)NNC(=O)Cn2nc(-c3ccccc3)c(-c3ccccc3)c(C#N)c2=O)cc1,1.46%
4,CCOc1ccc(S(=O)(=O)N2CCN(c3ccc(C)cc3C)CC2)cc1,2.67%
5,Cc1nn(CC(=O)NCCc2ccc(Cl)cc2Cl)c(C)c1[N+](=O)[O-],15.1%
6,CCOc1ccc(/C=C/C(=O)C(C(N)=O)=C2SCCS2)cc1,14.3%
7,CCO[C@@H]1OC(C(=O)NC2CC2)=C[C@H](C2CCCCC2)[C@H]1CCCO,-1.03%
8,O=C1NN(c2ccc(Br)cc2)C(=O)/C1=C\c1ccc(O)cc1O,18.8%
9,CC(=O)N1C(O)CC(C)N1c1ccccc1 (stereo not shown),16.5%
10,CN(C(=O)c1ccc(NC(=O)Cc2cccc(NC(=O)C3CCN(C(=O)C4CCC4)CC3)c2)cc1)C1CCCC1,13.2%
11,COc1ccc(-c2cc(-c3cc(F)ccc3O)[nH]n2)cc1OC,2.06%
12,O=[N+]([O-])c1cc(S(=O)(=O)N2CCCC2)ccc1NN=C1CCCC1,6.85%
13,O=C(Nc1ccccc1SCC1CSc2nc3ccccc3c(=O)n21)c1ccccc1 (stereo not shown),-24.7%
14,Clc1cc(Cl)cc(C2=NC(Cc3ccccc3)CO2)c1 (stereo not shown),17.3%
15,O=C(NCCOCc1ccccc1)C(c1ccccc1)c1ccccc1,2.92%
16,CS(=O)(=O)Cc1ccc(C(=O)NC2CCSc3ccccc32)cc1 (stereo not shown),-1.68%
17,COc1ccc(C)cc1NC(=O)CSc1ccc(-c2sc(C)nc2C)nn1,5.92%
18,Cc1c(N/C(=N/S(=O)(=O)c2ccc(F)cc2)c2ccccc2)c(=O)n(-c2ccccc2)n1C,14.3%
19,O=C(NC1CCCC1)c1ccc(CS(=O)(=O)c2cccc(C(F)(F)F)c2)o1,4.26%
20,Cc1c(NS(=O)(=O)c2ccc3c(c2)n(C)c(=O)n3C)c(=O)n(-c2ccccc2)n1C,6.72%
21,Cc1ccn(CC(=O)O)c(=O)c1,-5.52%
22,Cc1ccc(C)c(S(=O)(=O)N/N=C/c2ccc(N3CCOCC3)cc2)c1,16.9%

row,Structure (SMILES),"hERG current change (%, negative = inhibition) at 1uM"
1,COc1cc(OC)cc(C(=O)NNC(=O)CN2C(=O)NC(C)(c3ccccc3)C2=O)c1 (stereo not shown),21.7%
2,COc1ccc(-c2csc(NC(=O)CCn3cnc4ccccc4c3=O)n2)cc1OC,14.1%
3,COC(=O)COc1c(Cl)cc(Cl)c2ccc(C)nc12,-3.07%
4,C=CCn1c(O)c(C(CC)=Nc2cc(OC)ccc2OC)c(=O)[nH]c1=O,15.9%
5,COc1ccc(NC(=O)C2C3C=CC(C3)C2C(=O)O)cc1 (stereo not shown),10.1%
6,Cc1ccc(Nc2nc(C)cc(C)n2)c(Br)c1,10.5%
7,O=[N+]([O-])c1ccc(Cl)c(S(=O)(=O)n2ccnc2)c1,9.82%
8,CC(C(=O)OCC(=O)Nc1ccc2c(c1)OCO2)N1C(=O)c2ccccc2C1=O (stereo not shown),10.6%
9,COc1ccc(C(CCNCc2ccccc2)c2ccc(F)cc2)cc1 (stereo not shown),-17.7%
10,CC(=O)Nn1cc2c(c1-c1ccccc1)c(=O)n(C)c(=O)n2C,-4.59%
11,COc1ccc(C(=O)NNC(=O)c2cc3ccccc3cc2O)cc1,16.4%
12,COc1cccc(NC(=O)CCN2CCC(C(N)=O)CC2)c1,16.9%
13,CC(=O)c1cccc(NC(=O)Nc2ccc(C)cc2)c1,0.196%
14,COC(=O)[C@@H]1OC(=O)[C@H]2O[C@@]23[C@@]1(C)CC[C@@H]1[C@@]2(C)C=CC(=O)OC(C)(C)[C@@H]2CC(=O)[C@]13C,18.5%
15,CCc1cc2c(=O)c(-c3nc4ccccc4n3C)c(C)oc2cc1OC(C)=O,8.15%
16,Cc1ccc(C(=O)OCC(=O)NCCN2C(=O)CSC2=O)cc1,5.68%
17,COc1ccc(NC(=O)c2nc(S(=O)(=O)Cc3cccc(C)c3)ncc2Cl)c(OC)c1,22%
18,COc1ccc(-n2c3c(cc(C(=O)Nc4cccc(C)n4)c2=O)C(=O)CC(C)(C)C3)cc1,7.5%
19,COc1cccc(NC(=O)c2cc(-c3ccncc3)nc3c(C)cc(C)cc23)c1,9.54%
20,Brc1ccc(-c2ccc(/C=N/Nc3nncc(-c4ccccc4)n3)o2)cc1,21%
21,O=C(NCCCN1CCOCC1)C1CCC(=O)N1CCc1ccccc1 (stereo not shown),14.9%
22,CCOC(=O)N1CCC(NC(=O)CCc2c(C)nc3nc(C)nn3c2C)CC1,3.46%

row,Structure (SMILES),"hERG current change (%, negative = inhibition) at 1uM"
1,CNCCc1ccccn1.Cl,12.6%
2,O=C(CSc1nc2[nH]ncc2c(=O)n1-c1ccccc1)c1ccc2c(c1)OCCO2,2.71%
3,Cc1ccc(NC(=O)CSc2nnc3ccccn23)cc1,10.1%
4,CNC(=O)c1sc(Nc2cc(C)ccc2C)nc1C,8.43%
5,COC(=O)CCC(=O)NC(=S)Nc1ccc(S(=O)(=O)Nc2cc(OC)nc(OC)n2)cc1,18.2%
6,Cc1cc([N+](=O)[O-])ccc1NC(=O)Nc1ccc(F)cc1F,14.9%
7,O=C(NCC1CC1)C1(C(F)(F)F)C/C(=C\Cc2ccccc2)CCCO1 (stereo not shown),12.5%
8,FC(F)(F)c1cnc2c(-c3ccc(Cl)cc3Cl)noc2c1,10.2%
9,Cc1cccc(NC(=O)Nc2ccc3c(c2)CCC3)c1,10.1%
10,COc1ccc(C(C(=O)NC2CCCCC2)N(C(=O)CCl)c2ccc(Cl)cc2)cc1 (stereo not shown),0.511%
11,Cc1cc(N2CCCCC2)n2nc(C)c(-c3ccccc3)c2n1,10.6%
12,C=CCn1c(SCC(=O)Nc2cccc(C(=O)OC)c2)nnc1C(C)NC(=O)c1cccs1 (stereo not shown),-1.28%
13,COc1cnc(-c2ccccn2)nc1NC(C)C,7.11%
14,O=C(Nc1nnc(SCC(=O)N2CCCCC2)s1)c1cccs1,5.02%
15,Cc1ccc(/C=c2\sc3nc(-c4cccs4)nn3c2=O)o1,-4.82%
16,COc1cc2c(cc1NC(=O)c1cc(-c3ccncc3)nc3ccc(C)cc13)oc1ccccc12,7.89%
17,COCCN(C(=O)c1snc(C(N)=O)c1N)C(C(=O)NC1CCCCC1)c1ccc(F)cc1 (stereo not shown),13.1%
18,CCN1CCn2c1nc(N1CCCCC1)nc2=O,10.7%
19,Cc1nc(NC(=O)CN2CCN(c3cccc(Cl)c3)CC2)sc1C(=O)N(C)C,11.1%

# Source: PMC4336329 (PLoS ONE, 2015)
